# Out of some 200,000 compounds screened, about 4,500 (2.2%) were called active. Inconclusive results, whose numbers are uncertain, are shown with a selection of clear calls. Calls come from the whole dose curve; as a rule, active = well fitted inhibition curve with a large enough effect; inconclusive = small, poorly fitted or top-dose-only effect, or effect the other way; inactive = flat fitted curve, though single readings scatter. Potencies beside an inconclusive call are fits to weak or partial responses and may not hold up.
# Biological target: Cruzipain (Trypanosoma cruzi) (UniProt P25779)
# Chain of UniProt P25779 (P25779 whole entry, looked up): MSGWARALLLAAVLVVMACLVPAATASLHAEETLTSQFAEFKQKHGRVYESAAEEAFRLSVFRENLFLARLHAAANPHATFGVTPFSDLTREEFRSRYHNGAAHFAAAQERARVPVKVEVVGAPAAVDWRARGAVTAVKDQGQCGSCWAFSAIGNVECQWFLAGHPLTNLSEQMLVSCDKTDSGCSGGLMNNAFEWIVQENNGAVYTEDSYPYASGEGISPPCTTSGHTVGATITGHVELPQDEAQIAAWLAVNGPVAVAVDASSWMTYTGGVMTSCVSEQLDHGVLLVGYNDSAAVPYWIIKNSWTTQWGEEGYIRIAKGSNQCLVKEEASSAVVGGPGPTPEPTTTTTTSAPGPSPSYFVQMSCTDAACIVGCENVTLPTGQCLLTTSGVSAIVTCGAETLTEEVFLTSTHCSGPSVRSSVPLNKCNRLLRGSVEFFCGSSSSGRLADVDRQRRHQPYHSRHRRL
# Experiment: qHTS Assay for Promiscuous and Specific Inhibitors of Cruzain (without detergent); note: nearly all actives have a fitted effect of over 40% in size;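 for max response, negative = inhibition: plate controls were enzyme without inhibitor for no effect and buffer without enzyme for full effect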
# Conditions: purified cruzain, Z-FR-AMC fluorescence, no detergent
# How it was run: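 Purified cruzain at 1.5 nM, pre-incubated 15 min with compound at room temperature in 100 mM sodium acetate pH 5.5, 5 mM DTT, 0.00005% Triton X-100. Reaction started with 2 uM Z-FR-AMC; AMC fluorescence increase over 60 s gives rate.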
# Potency is the fitted concentration of half-maximal effect; tags give direction and shape of the fitted curve.
Compound,Potency,"max response, negative = inhibition"
COc1cc(C(=O)NCC(c2cccnc2)N2CCN(c3ccc(F)cc3)CC2)cc(OC)c1OC (stereo not drawn),"inconclusive: 39.8 µM [activator, single point]",–
O=C(c1ccccc1)c1cnc(Nc2ccc(Cl)c(Cl)c2)s1,"inconclusive: 31.6 µM [inhibitor, single point]",–
CCn1c(SCc2ccc(C(=O)Nc3cc(C)cc(C)c3)cc2)nnc1-c1ccncc1,"inconclusive: 39.8 µM [activator, single point]",–
O=C(Oc1ccccc1)N1CCC2(CC1)CCN(c1ccncc1)CC2,–,inactive: 8.73%
COc1cc(NC(=O)c2cccs2)c(C(=O)OCC(=O)NCc2ccco2)cc1OC,"inconclusive: 31.6 µM [activator, single point]",–
CC(C)(C)OC(=O)N1CCC(c2c(C(=O)NCc3ccc4c(c3)OCO4)cnn2-c2ccc(F)cc2F)CC1,–,inactive: 12.3%
O=S(=O)(c1ccccc1)N1CCN(c2ncnc3sc(-c4ccccc4)cc23)CC1,"inconclusive: 39.8 µM [inhibitor, single point]",–
CCC(C(=O)Nc1cccc(-c2cn3cccnc3n2)c1)c1ccccc1 (stereo not drawn),"inconclusive: 31.6 µM [activator, single point]",–
O=C(Nc1ccc(Cl)cc1Cl)c1cc(S(=O)(=O)N2CCN(c3ccccc3F)CC2)ccc1F,–,inactive: 4.09%
Cc1ccc(CC2CC(=O)N(Cc3ccco3)C2=O)cc1 (stereo not drawn),"inconclusive: 25.1 µM [activator, single point]",–
CN(Cc1ccccc1)c1nc(-c2ccc(F)cc2)cc(C(F)(F)F)n1,–,inactive: -2.33%
Cc1ccc(NC(=O)COC(=O)C2COc3ccccc3O2)cc1S(=O)(=O)N1CCOCC1 (stereo not drawn),"inconclusive: 25.1 µM [activator, single point]",–
O=C(CC1S/C(=N/N=C/c2c[nH]c3ccc(OCc4ccccc4)cc23)NC1=O)Nc1ccccc1 (stereo not drawn),active: 6.31 µM,–
Cc1c(NC(=O)c2nn3c(c2Br)NC(c2ccccc2)CC3C(F)(F)F)c(=O)n(-c2ccccc2)n1C (stereo not drawn),"inconclusive: 39.8 µM [activator, single point]",–
Cc1ccn2c(c1)nc(=O)c1cc(S(=O)(=O)N3CCC(C)CC3)c(Cl)cc12,–,inactive: -2.77%
CC1=C(C(=O)Nc2ccc(C)cc2C)C(c2ccccc2[N+](=O)[O-])n2ncc(C(=O)Nc3ccccc3)c2N1 (stereo not drawn),"inconclusive: 20 µM [inhibitor, partial curve]",–
COc1ccc(NC(=O)C2C3CCC4C(CCC32)C4(Cl)Cl)cc1 (stereo not drawn),active: 25.1 µM,–
O=C(CSc1ccccn1)Nc1nc2c(ccc3ccccc32)s1,"inconclusive: 39.8 µM [inhibitor, single point]",–

# Reference: PubChem BioAssay AID1476 (National Center for Advancing Translational Sciences (NCATS), 2009)
